The other results are listed elsewhere or left out.

First the molecules themselves.
T1: UNK ZnF1-3 (human, UniProt Q9C0B0 31-174)
T1 sequence: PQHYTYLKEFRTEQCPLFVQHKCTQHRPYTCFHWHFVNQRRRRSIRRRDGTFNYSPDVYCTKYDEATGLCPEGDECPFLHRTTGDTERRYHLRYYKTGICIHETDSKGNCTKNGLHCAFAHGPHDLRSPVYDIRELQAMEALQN

B1: chr7:149068622:149068623:-_ENSMUSG00000025139_ENSMUST00000001950|mus_hu|mus_mus_mus_hu_False|98_108 (ssRNA)
RNA: GGGAGUUCUACAGUCCGACGAUCGUGCAGGUACUGAGUGAGGUUCCUGGUCUGUCCUGGGUUAGAGUUGUUAAUAUCACGGAACAUACCAUCUAGAACGUUCCAGUCCCGCCUGACACCUUCAUUCCCAAUGGAGAAGAAAUCCAACAGAGGAUUGAGCAUCA
B2: chr11:31958201:31958202:+_ENSMUSG00000020297_ENSMUST00000020537|mus_mus|motif|central (ssRNA)
RNA: GGGAGUUCUACAGUCCGACGAUCCCAUGAGUUUGUGCAAAUCUUGCAAGCUCACCAUUGAGUGGUACUCUGUGCAUUCCGGGUUGAGAAAUGCCAACAUCACCUUCCUCUCCAAAUCAGCCUUGCCUGCCAUCGCUGUGCUUCCAACAGAGGAUUGAGCAUCA
B3: chr4:86222814:86222815:+_ENSMUSG00000070934_ENSMUST00000091064|mus_hu|FALSE|FALSE (ssRNA)
RNA: GGGAGUUCUACAGUCCGACGAUCGACAUUAUGAAUAUUAAAAAUAAAGGAUGCAAACAAAAAAGGCAAUUCAGCAUUUUCAGAAAGAGCAUUUGGCAAUAUUCAACGCAUAAGGAGACUGUGCUUGGGGCCAUCCACUCUCUCCAACAGAGGAUUGAGCAUCA
B4: chr11:105132459:105132460:+_ENSMUSG00000020694_ENSMUST00000015107|mus_mus|FALSE|FALSE (ssRNA)
RNA: GGGAGUUCUACAGUCCGACGAUCGAUCUUGGAAAGACCAAAAUCUGUAAUUUUUAUCUCUCCACAUGCUGUACCAUUUACUAAAAGGAUAUUACCUGGUUUGAGGUCAUAGUGUAUGAUGGGAGGUUUUAUUUCAUUUAAGUACAACAGAGGAUUGAGCAUCA
B5: chr5:4806447:4806448:-_ENSMUSG00000028926_ENSMUST00000030763|mus_mus|FALSE|FALSE (ssRNA)
RNA: GGGAGUUCUACAGUCCGACGAUCUCACAGAGACACCGUGCGAUGGACACUGUGCGGCAGGGGGAAGCAAACAGAACCAGACACAAAAGACGGAAAAGAAUACAUGCCAUGUAGCAGUAAGCAAAGCUUAAUCGUCACGUAGUUCAACAGAGGAUUGAGCAUCA
B6: 59925389_59927128_2872_CDS_ENSMUSG00000067336_ENSMUST00000087435|mouse|control|control (ssRNA)
RNA: GGGAGUUCUACAGUCCGACGAUCCUUGAUCUUUUCACCUGAUCCUGAUUUGCCAUCUUGUGUUGACUCACCUAUCUGUAUACUGCUGCCAUCCAGGAUAUUUGUGGCUGAAAGAUCCAGAGAAUUGGGCCUCUGUGCUCUUCUCAACAGAGGAUUGAGCAUCA
B7: 243354648_243354768_771_3pUTR_ENSG00000143702_ENST00000366542|human|control|control (ssRNA)
RNA: GGGAGUUCUACAGUCCGACGAUCUGAAUAGUGCUUUCUGUUAUUUGUGAUGGUUGCUGGAAUUCUUUUGUAGGGAUUUCAAAAUAACUUGGUUCCCUACAGAAAGGAAAAAGUACUUCUUCAUUUGCAGCUGCAGAUUGUUCCCAACAGAGGAUUGAGCAUCA
B8: chr7:141445308:141445309:+_ENSG00000106028_ENST00000265304|hu_hu|hu_hu_hu_mus_False|28_38 (ssRNA)
RNA: GGGAGUUCUACAGUCCGACGAUCUAUGAUUGUUGUUGCUUGCCGCCUCACAUUGUUUUUAUCCAUGUACUCGCCAUAGUCCACUUUCCCUUCCACAUAAAUUCGAGACCCCUUUUUCACAUACUGAUAUGCCACAUCUCUGAGCAACAGAGGAUUGAGCAUCA
B9: chr8:74585381:74585382:-_ENSG00000040341_ENST00000355780|hu_mus|FALSE|FALSE (ssRNA)
RNA: GGGAGUUCUACAGUCCGACGAUCGGGCAUUGGGCAAUGAUACCUCUGAUUGUACAUGCCCCGGAAGUUGUAGUUAGCUCUAUAAUUUGGGAAUGGCUUUGGAUCUAGUGGCCUGUAGAUGGCAGGCUCUCCCCUUUUCAUAGCCAACAGAGGAUUGAGCAUCA
B10: chr3:176740097:176740098:-_ENSG00000177565_ENST00000430069|hu_mus|hu_hu_hu_mus_True|1_48 (ssRNA)
RNA: GGGAGUUCUACAGUCCGACGAUCUGUUUUGUAUACCACAAAAGGAGGCACUUUCAGUAUCUGCAAAAGGUGUUUAGUCCUAAAACAUACUUACCUAGAGGAUAACUCAGGAAAACAAUCUGUUACACUCUAAGACCUUAGGAACAACAGAGGAUUGAGCAUCA
B11: 72189914_72190034_5342_CDS_ENSG00000066933_ENST00000356056|human|control|control (ssRNA)
RNA: GGGAGUUCUACAGUCCGACGAUCUUUUGAAAUGCGAUUAUUUGAGAGUUUACAGGCUACAUUCAGCUGGGUGCCCAUUCUGUCUGUCUUGGAUAAUUCCUUGACAGUACUAGAUUGGCAUGGACUUCCUUUUCUUUCAAAGAACAACAGAGGAUUGAGCAUCA
B12: chr1:75481486:75481487:+_ENSMUSG00000051703_ENSMUST00000113575|mus_hu|FALSE|FALSE (ssRNA)
RNA: GGGAGUUCUACAGUCCGACGAUCGGGGCCUGAGCAGGCUGUCAGAGGUCCCCGGGACCCAUACUCAUAGUCCGCAUCUGUGGGUGAGGCCAUGAAGGAGCUCAGGGAGCUCCCGGUCUGCCGGUCUCGGAAGCUCUGGAUAUACAACAGAGGAUUGAGCAUCA
B13: chr3:130650941:130650942:+_ENSG00000017260_ENST00000359644|hu_hu|motif|central (ssRNA)
RNA: GGGAGUUCUACAGUCCGACGAUCAAUAAGGGGAUUUUUAAACUGAGAAAUAUACUUCUUCCACAGUGGCUCAUCUUCACGGAUAUCAAACUCAUUCCAGCCAUGAAAGGCUCGCCUAUGACUAACUUCACAUUUGUUUAGACCCAACAGAGGAUUGAGCAUCA
B14: chr10:121347744:121347745:-_ENSG00000151923_ENST00000436547|hu_hu|FALSE|FALSE (ssRNA)
RNA: GGGAGUUCUACAGUCCGACGAUCCAAUCUGACUGAACAACUGAAGUAUAAGGACUUCUGUCACAUCUCUGGAAAGGUUACCUACGUAUAGAGUCCGGGGCUGCCCGUCGUCUUCCAUCAUGGUGGGUGCGACGGAGCGAUCCCCAACAGAGGAUUGAGCAUCA
B15: chr7:65705844:65705845:+_ENSG00000169902_ENST00000304842|hu_mus|hu_hu_hu_mus_False|18_18 (ssRNA)
RNA: GGGAGUUCUACAGUCCGACGAUCAAACGGAUCUUUGUUACAUAAAUAAGGUGCCGGCUCCCCAUGUUUAACAAUGACCUCCAGAAGGAAGGCUUGCAUGGCAGAAUCUAGCACUUCAUCAGUAACACCCGCCUCAUCCAAGCGCAACAGAGGAUUGAGCAUCA
B16: chrX:102930994:102930995:-_ENSG00000123562_ENST00000441076|hu_hu|FALSE|FALSE (ssRNA)
RNA: GGGAGUUCUACAGUCCGACGAUCAUAAGCCCUGUUAUACAUUAACGAUUUUAAAGAACAUCAAUUUUACAAGAAAAAGACUAAGAACAAAAAGUGUUUACAGAUACAGGACAAAAAUGGUGAGCUGUCUGUAGACGCUCACAGCAACAGAGGAUUGAGCAUCA
B17: 213168467_213170549_1645_3pUTR_ENSG00000174606_ENST00000366962|human|control|control (ssRNA)
RNA: GGGAGUUCUACAGUCCGACGAUCUCUUGUUCUGUAAGAAGUGACAGUCUAGCUAGAAGUUUCAAGCCACCAACCAAAGCAACUUCAGCUCCUGGGUGCCCAGCAACAUCUUCCUUUUCUGCAGAGUAGAAAAUAUAAUCCACACAACAGAGGAUUGAGCAUCA
B18: 49087874_49087994_1285_CDS_ENSG00000129315_ENST00000261900|human|control|control (ssRNA)
RNA: GGGAGUUCUACAGUCCGACGAUCGGAAAUAAAUGCAUUUGAACCAUCCUGUGGUAAGGAAUGAUCAACUCCUGUAAGUGCUAAAUUCUCACUAGUCCGAUGACCCUGAGUAGGUUCUAGUUUGAAAGAAGGUUGGGAGGACAGCAACAGAGGAUUGAGCAUCA
B19: chr7:6442117:6442118:+_ENSG00000136238_ENST00000348035|hu_hu|FALSE|FALSE (ssRNA)
RNA: GGGAGUUCUACAGUCCGACGAUCCGUUGUUUUUUUUUUUUGUUUUUUUUUUUUGUUUUUUUUUGAGCAAAGCGUACAAAGGUUCCAAGGGACAGGACCAAGAACGAGGGGCUGAGACAUUUACAACAGCAGGCAUUUUCUCUUCAACAGAGGAUUGAGCAUCA
B20: chr2:48026839:48026840:+_ENSG00000116062_ENST00000540021|hu_hu|hu_hu_hu_mus_False|18_88 (ssRNA)
RNA: GGGAGUUCUACAGUCCGACGAUCAUAGUGAGCCACUAGCGUCCUAAAUCUCGAACAGUGGCGGUCAUCCGAAAACUGGCCGAUGAAAAACUUGCCCAGUGAAGUGUCCACAAAGCACACACCAUAUACACGAGUGUGACCAGACAACAGAGGAUUGAGCAUCA
B21: chr19:8913615:8913616:-_ENSMUSG00000071658_ENSMUST00000096259|mus_hu|mus_mus_mus_hu_False|28_28 (ssRNA)
RNA: GGGAGUUCUACAGUCCGACGAUCAGGGUACCAAAACCUUCUGCCUGAAAUGGGUGCCCCACCCAGUAGGGAGUUGCAGCUGAAAGUAUCUGAUGCAGAAGCAGUGAAUGCAGAGAAGGAGGCCCCUGGGGAGGGCCAGGCCAGCAACAGAGGAUUGAGCAUCA
B22: chr1:160275524:160275525:-_ENSG00000122218_ENST00000241704|hu_mus|FALSE|FALSE (ssRNA)
RNA: GGGAGUUCUACAGUCCGACGAUCACACAGAGCAUCCAGCUUGCGGUUACAGAUCACAAUGGCAUGCUUGGCCAGUAACGCUACAUGAGACAUGUCUGCCGACCAGAUAACAUAUUUCACCUUGGAAAUCUUCACUGAUGCCAGCAACAGAGGAUUGAGCAUCA

This assay has as its target T1, UNK ZnF1-3. Put plainly: nsRBNS (natural sequence RNA bind-n-seq); RBNS binding buffer (assumed for nsRBNS): 25 mM Tris pH 7.5, 150 mM KCl, 3 mM MgCl2, 0.01% Triton X-100, 500 ug/ml BSA, 20 U/ml SUPERase-In, 4 C; UNK is unkempt and MSI1 is Musashi-1; names of the RNAs are library labels; protein concentration not given here; high values mean tight binding.
B1: the binding signal turned out to be 0.739 enrichment R.
In turn, B2 gave a binding signal of 0.887 enrichment R.
The figure for B3 is 2.35 enrichment R.
The molecule B4 returned a binding signal of 0.987 enrichment R.
On to B5, for which the binding signal came to 1.11 enrichment R.
Turning to B6, the binding signal worked out at 0.577 enrichment R.
With B7, the binding signal came out at 0.633 enrichment R.
Take B8: the binding signal turned out to be 0.632 enrichment R.
With B9, the binding signal was determined as 0.72 enrichment R.
The value for B10 was 0.759 enrichment R.
The molecule B11 came in with a binding signal of 0.459 enrichment R.
Molecule B12 showed a binding signal of 1.85 enrichment R.
The value for B13 was 0.959 enrichment R; that for B14 was 0.694 enrichment R; that for B15 was 0.255 enrichment R.
The figure for B16 is 0.849 enrichment R; for B17 it is 1.01 enrichment R; for B18 it is 0.827 enrichment R.
Regarding B19, the binding signal was determined as 1.5 enrichment R.
The molecule B20 showed a binding signal of 1.13 enrichment R.
The molecule B21 yielded a binding signal of 1.52 enrichment R.
As to B22, the binding signal is 1.07 enrichment R.
